Laboratory results reported in patent publication US9688764B2, “Methods of treating breast cancer by administering anti-human prolactin receptor (PRLR) antibodies” (REGENERON PHARMACEUTICALS, INC., priority 2013, dated 2017).

T1: HEK293/hPRLR (Homo sapiens, UniProt P16471)
T1 construct: HA; expressed in transfected cells; host or cells: HEK293
T1 sequence (P16471 25-622): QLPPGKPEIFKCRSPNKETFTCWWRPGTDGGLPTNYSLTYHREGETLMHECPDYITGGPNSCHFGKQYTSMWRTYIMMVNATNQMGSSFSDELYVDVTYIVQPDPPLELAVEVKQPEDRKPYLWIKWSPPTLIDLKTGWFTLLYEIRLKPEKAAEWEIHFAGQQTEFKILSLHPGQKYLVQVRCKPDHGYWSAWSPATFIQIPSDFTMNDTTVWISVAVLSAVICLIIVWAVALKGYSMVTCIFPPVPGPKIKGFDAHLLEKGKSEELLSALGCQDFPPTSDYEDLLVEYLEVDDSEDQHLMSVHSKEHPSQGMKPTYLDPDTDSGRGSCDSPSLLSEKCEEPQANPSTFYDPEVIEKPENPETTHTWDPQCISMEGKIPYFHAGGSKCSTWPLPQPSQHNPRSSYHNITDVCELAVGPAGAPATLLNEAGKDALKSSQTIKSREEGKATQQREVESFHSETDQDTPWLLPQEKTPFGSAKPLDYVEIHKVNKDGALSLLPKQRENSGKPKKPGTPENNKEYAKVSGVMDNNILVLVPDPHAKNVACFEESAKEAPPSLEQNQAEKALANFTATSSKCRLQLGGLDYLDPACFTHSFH

T2: HEK293/mPRLR (Mus musculus, UniProt Q08501)
T2 construct: HA; expressed in transfected cells; host or cells: HEK293
T2 sequence (Q08501 20-608): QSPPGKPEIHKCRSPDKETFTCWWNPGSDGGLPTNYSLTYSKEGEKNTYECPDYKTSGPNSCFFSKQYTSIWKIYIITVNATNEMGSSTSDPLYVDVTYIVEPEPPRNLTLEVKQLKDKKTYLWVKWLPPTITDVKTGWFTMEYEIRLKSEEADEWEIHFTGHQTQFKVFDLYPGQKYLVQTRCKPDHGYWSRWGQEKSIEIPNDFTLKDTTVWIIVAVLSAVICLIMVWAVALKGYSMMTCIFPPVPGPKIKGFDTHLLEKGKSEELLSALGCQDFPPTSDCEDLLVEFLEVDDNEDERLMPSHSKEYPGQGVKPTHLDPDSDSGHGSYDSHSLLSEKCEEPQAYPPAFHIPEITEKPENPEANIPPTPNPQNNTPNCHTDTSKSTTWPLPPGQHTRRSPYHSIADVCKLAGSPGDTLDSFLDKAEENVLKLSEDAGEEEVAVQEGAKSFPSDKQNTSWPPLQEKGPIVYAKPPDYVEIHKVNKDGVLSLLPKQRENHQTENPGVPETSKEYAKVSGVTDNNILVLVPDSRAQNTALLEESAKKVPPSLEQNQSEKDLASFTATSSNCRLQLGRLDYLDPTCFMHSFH

T3: T47D (native PRLR expressing cell line) (Homo sapiens, UniProt P16471)
T3 construct: a native PRLR expressing cell line (T47D); endogenous in cells; host or cells: T47D
T3 sequence (P16471 25-622): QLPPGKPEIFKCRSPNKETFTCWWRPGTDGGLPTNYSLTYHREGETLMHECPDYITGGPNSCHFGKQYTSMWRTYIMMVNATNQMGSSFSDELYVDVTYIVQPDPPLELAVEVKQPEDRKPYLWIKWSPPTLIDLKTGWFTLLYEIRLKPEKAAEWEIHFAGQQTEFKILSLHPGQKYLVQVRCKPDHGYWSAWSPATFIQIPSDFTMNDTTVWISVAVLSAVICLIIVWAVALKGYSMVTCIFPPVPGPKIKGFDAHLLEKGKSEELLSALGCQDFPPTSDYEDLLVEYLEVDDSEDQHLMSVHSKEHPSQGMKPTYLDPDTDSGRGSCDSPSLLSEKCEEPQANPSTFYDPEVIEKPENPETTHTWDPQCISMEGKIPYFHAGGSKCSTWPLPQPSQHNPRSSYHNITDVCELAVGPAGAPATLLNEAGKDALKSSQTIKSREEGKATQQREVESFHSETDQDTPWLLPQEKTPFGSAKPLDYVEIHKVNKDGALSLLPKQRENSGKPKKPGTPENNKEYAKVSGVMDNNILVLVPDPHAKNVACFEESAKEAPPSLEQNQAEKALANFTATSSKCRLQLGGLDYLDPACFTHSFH

T4: PRLR-expressing cells (T47D) (Homo sapiens, UniProt P16471)
T4 construct: a native PRLR expressing cell line (T47D); endogenous in cells; host or cells: T47D
T4 sequence (P16471 25-622): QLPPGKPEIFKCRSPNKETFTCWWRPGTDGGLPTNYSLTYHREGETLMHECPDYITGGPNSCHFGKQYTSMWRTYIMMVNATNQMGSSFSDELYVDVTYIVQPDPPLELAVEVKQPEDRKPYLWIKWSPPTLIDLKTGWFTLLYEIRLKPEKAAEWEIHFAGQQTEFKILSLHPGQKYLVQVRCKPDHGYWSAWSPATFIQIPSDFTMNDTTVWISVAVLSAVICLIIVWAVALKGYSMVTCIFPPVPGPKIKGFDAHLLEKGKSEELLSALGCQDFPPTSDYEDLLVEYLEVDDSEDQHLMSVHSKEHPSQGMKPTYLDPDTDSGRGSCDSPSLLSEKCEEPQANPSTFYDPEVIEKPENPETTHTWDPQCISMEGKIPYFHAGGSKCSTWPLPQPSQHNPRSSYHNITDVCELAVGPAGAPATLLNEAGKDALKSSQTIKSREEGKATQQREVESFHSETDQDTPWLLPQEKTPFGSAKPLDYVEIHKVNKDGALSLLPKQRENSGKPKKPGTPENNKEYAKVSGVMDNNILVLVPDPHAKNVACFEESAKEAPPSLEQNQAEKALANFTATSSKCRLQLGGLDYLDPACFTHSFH


Columns and labels:
[1] = target: T5, hPRLR.mFc (soluble dimeric human PRLR) (Homo sapiens, UniProt P16471); test: Surface plasmon resonance (Biacore T200), mAb-capture format; type: binding; details: antibody-capture format, analyte hPRLR.mFc
T5 construct: dimeric (hPRLR.mFc)
Procedure: (§1) Antibodies, expressed as human IgG1 Fc “[…]” designations), were captured onto an anti-human Fc sensor surface (mAb-capture format), and soluble monomeric (hPRLR.mmh; SEQ ID NO:401, or macaca fascicularis (mf) PRLR.mmh; SEQ ID NO:403) or dimeric (hPRLR.mFc; SEQ ID NO:402) PRLR protein was injected over the sensor surface. Measurements were conducted on a T200 Biacore instrument. Kinetic association (ka) and dissociation (kd) rate constants were determined by processing and fitting the data to a 1:1 binding model using Scrubber 2.0 curve fitting software.

[2] = target: T6, hPRLR.mmh (soluble monomeric human PRLR) (Homo sapiens, UniProt P16471); test: as above; type: binding; details: antibody-capture format, analyte hPRLR.mmh
T6 construct: soluble monomeric (hPRLR.mmh); mmh (myc-myc-hexahistidine)
Procedure: as §1

[3] = target: mfPRLR.mmh (monomeric macaca fascicularis PRLR); test: as above; type: binding; details: antibody-capture format, analyte mfPRLR.mmh
Procedure: as §1

[4] = tested on: HEK293 (non-expressing parental cells); test: FACS cell surface binding
Procedure: (§2) The ability of anti-PRLR antibodies to selectively bind PRLR expressing cell lines was next determined. Human, monkey macaca fascicularis, and mouse PRLR constructs with an HA tag were stably introduced into HEK293 cells via Lipofectamine 2000-mediated transfection methodology. Transfectants (HEK293/hPRLR, HEK293/mfPRLR and HEK293/mPRLR) were selected for at least 2 weeks in complete growth media plus G418.
(§3) Cell surface expression of PRLR on 293/hPRLR cells was assessed via FACS analysis. Briefly, 1×10^5 cells were incubated with 10 μg/ml of Control antibody I, or an isotype control for 30 min on ice in antibody dilution buffer. Following two washes with antibody dilution buffer, cells were incubated with 10 μg/ml of PE conjugated anti-human secondary antibodies for 30 min on ice. Following two additional washes, samples were run on a Hypercyt® cytometer and analyzed in FORECYT™ (IntelliCyt, Albuquerque, N. Mex.). The mean fluorescence intensities (MFI) were expressed as fold change above isotype control levels (background). FACS binding confirmed that Control I selectively bound to 293/hPRLR expressing cells with MFIs that were 30 fold above background (isotype ctrl) levels and less than 2 fold binding on parental cells.
(§4) Next, the anti-PRLR antibodies of the present invention were tested via FACS for selective binding to the engineered overexpressing PRLR HEK293 cell lines, as well as to non-expressing HEK293 cells and a native PRLR expressing cell line (T47D).

HEK293/hPRLR = target: T1, HEK293/hPRLR; test: FACS cell surface binding
Procedure: as §2, §3, §4

HEK293/mPRLR = target: T2, HEK293/mPRLR; test: FACS cell surface binding
Procedure: as §2, §3, §4

[5] = target: T3, T47D (native PRLR expressing cell line); test: FACS cell surface binding
Procedure: as §2, §3, §4

HEK293/mfPRLR = test: FACS cell surface binding; parameters: species or system macaca fascicularis
Procedure: as §2
as §3, with “cells. […]” for “cells.”

[6] = target: T4, PRLR-expressing cells (T47D); test: Antibody binding and internalization by PRLR-expressing cells (imaging); type: cell-based; details: [mAb] (0.67 nM); for % Internalization relative to Control I: alexa488 intensity in intracellular vesicles, 1 h at 37° C.; for % Total Binding relative to Control I: whole cell alexa488 intensity at 37° C.
Procedure: In this Example, the internalization of anti-PRLR antibodies by PRLR-expressing cells (T47D) was assessed. Briefly, 20,000 T47D cells were seeded in collagen coated 96 well plates. […] Cells were then incubated with alexa488 conjugated anti-hFc Fab secondary antibodies for 30 minutes on ice followed by two additional PBS washes. Antibodies were allowed to internalize for 1 h at 37° C. in internalization buffer (PBS+2% FBS) or remained at 4° C. Cells were fixed in 4% formaldehyde, nuclei were stained with DRAQ5 (Cell signaling), and images were acquired on the ImageXpress micro XL (Molecular Devices). Whole cell alexa488 intensity at 37° C. (Binding) and the alexa488 intensity in the intracellular vesicles at 37° C. (Internalization) were determined via Columbus image analysis software (PerkinElmer).

[7] = tested on: HEK293/hPRLR/STAT5-Luc cells (human PRLR); test: STAT5-Luc luciferase reporter assay, blocking of PRL-mediated receptor activation; type: cell-based; details: for Percent Blocking at 100 nM Antibody: 5 nM PRL
Source text: The ability of anti-PRLR antibodies to block prolactin (PRL)-mediated receptor activation was examined in a luciferase-based reporter assay. The endocrine hormone PRL binds to the extracellular domain of its cognate receptor PRLR, triggering rapid homodimerization and activating several downstream signaling cascades.
In this example, an engineered cell line was used to determine the ability of anti-PRLR antibodies to block ligand activation of the PRLR receptor. Briefly, HEK293/hPRLR/STAT5-Luc cell lines with stable incorporation of a human PRLR expression cassette and the STAT5-dependent luciferase reporter were generated via sequential rounds of Lipofectamine® 2000-mediated transfection (LifeTechnologies, Carlsbad, Calif.). Cells were selected for at least two weeks in the presence of 500 μg/mL G418 (hPRLR) and 100 μg/mL hygromycin B (STAT5-Luc). The STAT5-Luc assay utilized 2×10^5 HEK293/hPRLR/STAT5-Luc cells seeded in complete growth medium on PDL-coated 96 well plates grown overnight at 37° C., 5% CO2. To generate antibody inhibition curves, cells were incubated (6 hr at 37° C.) with serially diluted anti-human PRLR antibodies (100 nM to 24 pM) in the presence of 5 nM constant PRL before recording signal. PRL dose response curves were generated by the addition of serially diluted PRL (100 nM to 24 pM) to cells and recording signal after a 6 hr (37° C.) incubation in the absence of antibodies. The ability of the antibodies to activate PRLR in the absence of ligand was also assessed.
Luciferase activity was measured with ONE-GLO™ reagent (Promega, Madison, Wis.). Relative light units (RLUs) were measured on a Victor luminometer (Perkin Elmer, Shelton, Conn.). EC50/IC50 values were determined from a four-parameter logistic equation over an 8-point response curve using GraphPad Prism. Percent blocking and percent activation are reported for the highest antibody dose.

T5 sequence (P16471 with tags, fused parts or gaps): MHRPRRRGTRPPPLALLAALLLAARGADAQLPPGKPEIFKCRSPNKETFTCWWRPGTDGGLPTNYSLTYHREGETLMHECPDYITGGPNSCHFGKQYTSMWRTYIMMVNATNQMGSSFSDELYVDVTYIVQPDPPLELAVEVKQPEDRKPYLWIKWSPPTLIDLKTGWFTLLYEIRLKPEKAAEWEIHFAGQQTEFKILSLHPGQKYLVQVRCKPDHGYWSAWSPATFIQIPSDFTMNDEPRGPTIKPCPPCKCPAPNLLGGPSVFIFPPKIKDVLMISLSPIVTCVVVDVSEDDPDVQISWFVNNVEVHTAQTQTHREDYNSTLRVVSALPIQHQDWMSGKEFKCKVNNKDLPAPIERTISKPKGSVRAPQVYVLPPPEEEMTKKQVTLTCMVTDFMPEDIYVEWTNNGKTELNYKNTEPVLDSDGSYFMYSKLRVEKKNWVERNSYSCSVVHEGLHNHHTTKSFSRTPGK
T6 sequence (P16471 with tags, fused parts or gaps): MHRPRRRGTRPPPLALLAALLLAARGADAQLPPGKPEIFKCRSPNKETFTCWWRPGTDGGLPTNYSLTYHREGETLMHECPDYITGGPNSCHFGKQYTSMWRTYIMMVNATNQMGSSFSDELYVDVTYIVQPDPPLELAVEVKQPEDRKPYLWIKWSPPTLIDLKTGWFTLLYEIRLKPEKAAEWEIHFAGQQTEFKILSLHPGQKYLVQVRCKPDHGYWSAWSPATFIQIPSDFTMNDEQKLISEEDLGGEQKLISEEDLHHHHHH

Molecule | Kd ([1]; 25° C.) | T½ ([1]; 25° C.) | Kd ([1]; 37° C.) | T½ ([1]; 37° C.) | Kd ([2]; 25° C.) | T½ ([2]; 25° C.) | Kd ([2]; 37° C.) | T½ ([2]; 37° C.) | Kd ([3]; 25° C.) | T½ ([3]; 25° C.) | Kd ([3]; 37° C.) | T½ ([3]; 37° C.) | FACS Cell Binding (Fold Above Background) [4] | FACS Cell Binding (Fold Above Background) (HEK293/hPRLR) | FACS Cell Binding (Fold Above Background) (HEK293/mPRLR) | FACS Cell Binding (Fold Above Background) [5] | FACS Cell Binding (Fold Above Background) (HEK293/mfPRLR) | % Internalization relative to Control I [6] | % Total Binding relative to Control I [6] | Percent Blocking at 100 nM Antibody [7] | other results
H1H6807P: anti-PRLR antibody, human IgG1 Fc; HCVR/LCVR SEQ ID NOs 258/266 (antibody, V domains shown, human IgG1 Fc) VH: QVQLVESGGGVVQPGRSLRLSCAASGFTFSDYNMHWVRQAPGKGLEWVAVIWYDGSNKHYADSVKGRFTISRDNSKNTLYLQMNSLRAEDTAVYYCARDGFTIFGMVLDYWGQGTLVTVSS VL: [skipping about 100 residues]PFTFGPGTKVDIK | 0.0803 nM | 212 min | 0.09 nM | 105 min | 0.189 nM | 80 min | 0.31 nM | 34 min | 0.346 nM | 76 min | 0.448 nM | 32 min | 2 Fold Above Background | 32 Fold Above Background | 2 Fold Above Background | 34 Fold Above Background | 27 Fold Above Background | 147.0% | 152.7% | 100% | IC50 ([7]; 5 nM constant PRL, 6 hr at 37° C.): 0.6 nM
H1H6783P: anti-PRLR antibody, human IgG1 Fc; HCVR/LCVR SEQ ID NOs 82/90 (antibody, V domains shown, human IgG1 Fc) VH: QVQLQQSGPGLVKPSQTLSLTCAISGDSVSSNTFAWNWIRQSPSRGLEWLGRTYYRSKWYIDYAESVKSRITITPDTSKNQFSLQLNSVTPEDTALYYCAGGYTYAPRGAFDIWGQGTMVTVSS VL: [skipping about 100 residues]TFGQGTKLEIK | 0.332 nM | 132 min | 0.282 nM | 83 min | 1.43 nM | 28 min | 3.91 nM | 7 min | 1.81 nM | 34 min | 4.74 nM | 9 min | 1 Fold Above Background | 37 Fold Above Background | 1 Fold Above Background | 38 Fold Above Background | 27 Fold Above Background | 160.7% | 165.8% | 59% | 
